Drawing on article PMC5836133, this text covers binding signal for 172 sequences.

This is one part of the list. At the low end of the ranking, values are background and their order means little.

This experiment has as its system T1, GST-NbGlk1(82-244).
T1 sequence: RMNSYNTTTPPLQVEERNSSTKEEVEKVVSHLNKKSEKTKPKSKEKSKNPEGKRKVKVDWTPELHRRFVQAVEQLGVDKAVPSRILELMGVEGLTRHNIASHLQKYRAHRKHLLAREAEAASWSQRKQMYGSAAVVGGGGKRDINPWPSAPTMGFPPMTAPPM
As to the kind of experiment: protein-binding microarray.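 Note: rank-based score ranging −0.5 to +0.5 with E above 0.45 taken as significant binding.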 Particulars: NbGlk1 is a Golden2-like transcription factor of Nicotiana benthamiana; high values mean tight binding; most listed sequences are background and not binding sites; double strand, one strand shown.
In turn, AAATCTTC returned a binding signal of 0.446 E-score.

Take AGGCTACA: the binding signal is -0.202 E-score.

ATCAAATG registered a binding signal of 0.011 E-score.

CACGGAAG had a binding signal of -0.202 E-score.

The sequence ACATTCTG yielded a binding signal of 0.0157 E-score.

Turning to AATATGTG, the binding signal is 0.197 E-score.

As for CACACCAC, the binding signal is -0.0743 E-score.

Sequence AGCTCCCA gave a binding signal of -0.259 E-score.

Take CACTCTTA: the binding signal turned out to be 0.0276 E-score.

Consider AGGAAAAG, for which the binding signal is -0.16 E-score.

Sequence ACAATTGC gave a binding signal of -0.035 E-score.

With AGGGGTTC, the binding signal is -0.182 E-score.

As to ATCTGTTG, the binding signal was determined as 0.301 E-score.

In the case of AGTATTGC, the binding signal stood at 0.13 E-score.

AAAGATAG: the binding signal worked out at 0.0907 E-score.

On to ATTTATAG, for which the binding signal turned out to be 0.186 E-score.

On to AATGATAC, for which the binding signal came out at 0.0977 E-score.

In the case of ATATGAGC, the binding signal stood at 0.0882 E-score.

AACCTATC: the binding signal was -0.0294 E-score.

ACGTAGCG came in with a binding signal of -0.0933 E-score.

Consider ACGAATTG, for which the binding signal was 0.0988 E-score.

CAACAGCC displayed a binding signal of -0.272 E-score.

Turning to AAGCCACC, the binding signal was -0.331 E-score.

Sequence AATTGAAT showed a binding signal of 0.0598 E-score.

AAGCATTA came in with a binding signal of 0.0744 E-score.

Consider AGGAAAAT, for which the binding signal worked out at 0.226 E-score.

Regarding ACCACGAC, the binding signal is -0.167 E-score.

Consider CAAACTTA, for which the binding signal is 0.00475 E-score.

For the sequence AGTAGGCG, the binding signal was -0.0724 E-score.

In turn, ACACGCAT yielded a binding signal of -0.0111 E-score.

On to AAGTATAC, for which the binding signal was -0.0451 E-score.

Take ACCTAACT: the binding signal is -0.0606 E-score.

Regarding AGATTAAC, the binding signal was -0.00754 E-score.

For CACCGGGA, the binding signal is -0.0972 E-score.

Take ACAGCACC: the binding signal is -0.18 E-score.

In the case of AGACGGAA, the binding signal is -0.117 E-score.

In the case of ATACCGTA, the binding signal amounted to 0.221 E-score.

Sequence CAGAGCTC registered a binding signal of -0.154 E-score.

Sequence AGTCTAAC returned a binding signal of -0.11 E-score.

As for AGGATCAC, the binding signal was 0.211 E-score.

The sequence CACGGGGC registered a binding signal of -0.135 E-score.

ACCACACG returned a binding signal of -0.196 E-score.

Consider ACACCTAC, for which the binding signal was -0.0916 E-score.

As for ACCGATAC, the binding signal is 0.122 E-score.

For the sequence ACTCTCTA, the binding signal was -0.0533 E-score.

Consider ACGAATAA, for which the binding signal worked out at 0.0714 E-score.

AAAGACGA displayed a binding signal of 0.0808 E-score.

In turn, AACGTCCA came in with a binding signal of -0.231 E-score.

AACGCTCT gave a binding signal of -0.148 E-score.

Regarding AAAGCCAG, the binding signal was -0.139 E-score.

Take AAACCGTC: the binding signal is -0.156 E-score.

AGCCTACA returned a binding signal of -0.0732 E-score.

ACTGTGGC came in with a binding signal of -0.0638 E-score.

Sequence CAATCCAC came in with a binding signal of 0.328 E-score.

Regarding ATGCCACC, the binding signal is -0.125 E-score.

Turning to CAGACATG, the binding signal was -0.0585 E-score.

ACCAAGGC: the binding signal was -0.0872 E-score.

In turn, ATGGCTTA registered a binding signal of -0.132 E-score.

For the sequence ACCTATTG, the binding signal is -0.0927 E-score.

On to AGATGCTA, for which the binding signal was 0.0809 E-score.

As to ACCTAACG, the binding signal is -0.115 E-score.

ATCGCTCG: the binding signal amounted to 0.143 E-score.

Sequence ACTATACG showed a binding signal of -0.0191 E-score.

In turn, ACTCGCCG returned a binding signal of -0.0925 E-score.

In turn, ACACAGGG had a binding signal of -0.103 E-score.

Take AGCGTTTG: the binding signal was 0.0812 E-score.

Consider ATTTGGCG, for which the binding signal is 0.117 E-score.

In the case of AGAAAGGG, the binding signal was -0.223 E-score.

As to ATTTTGAA, the binding signal is 0.147 E-score.

As for CAAAAGAC, the binding signal was -0.106 E-score.

AGATCGCC yielded a binding signal of 0.353 E-score.

As for AGGAGATC, the binding signal turned out to be 0.382 E-score.

Sequence AATGCTTG showed a binding signal of -0.119 E-score.

ACGAACTC showed a binding signal of -0.153 E-score.

The sequence ATGGAATC yielded a binding signal of 0.385 E-score.

In turn, CAGAGCGG registered a binding signal of -0.105 E-score.

In the case of AATTCAAC, the binding signal was determined as 0.0273 E-score.

Sequence AGTGACGC returned a binding signal of -0.138 E-score.

Turning to AGGGAATC, the binding signal turned out to be 0.477 E-score.

As for AAGCCCGT, the binding signal is -0.203 E-score.

Sequence ATATGTCC returned a binding signal of -0.0314 E-score.

ACACCTCT came in with a binding signal of -0.16 E-score.

Sequence ATGGGCTG yielded a binding signal of -0.119 E-score.

ACCGACAA came in with a binding signal of 0.0952 E-score.

The sequence AATCGTGC returned a binding signal of 0.299 E-score.

Regarding ACTTCCTG, the binding signal is -0.00564 E-score.

Take ACAGCGGC: the binding signal is -0.205 E-score.

Sequence CAACGACC had a binding signal of -0.142 E-score.

With AGCTTCCT, the binding signal was -0.255 E-score.

AAAACTAA gave a binding signal of 0.0367 E-score.

Turning to ACAATTTA, the binding signal was 0.158 E-score.

With AGTAGTAT, the binding signal stood at 0.149 E-score.

AACAGCGA displayed a binding signal of -0.155 E-score.

In turn, AGGGTCCA returned a binding signal of -0.296 E-score.

As for AGTAAGCC, the binding signal was -0.214 E-score.

On to ATGGCGCC, for which the binding signal was -0.166 E-score.

Regarding AATCGTAT, the binding signal was 0.339 E-score.

As for AGGAACGA, the binding signal is -0.131 E-score.

ACACTCCC yielded a binding signal of -0.0639 E-score.

As to AAATGAGT, the binding signal stood at 0.0408 E-score.

The sequence AGTATTCA returned a binding signal of 0.0922 E-score.

Consider ATAGTAAG, for which the binding signal is 0.0645 E-score.

ACCTTATG: the binding signal was -0.0792 E-score.

Consider ACCAGGGC, for which the binding signal is -0.338 E-score.

Consider CAGCCTGA, for which the binding signal is -0.0999 E-score.

Sequence ACCGCAAC displayed a binding signal of -0.082 E-score.

Sequence AATTCTGG gave a binding signal of 0.129 E-score.

With AAAGCATT, the binding signal was -0.126 E-score.

In the case of AGGCGTAC, the binding signal is -0.209 E-score.

As for AGCGGTAG, the binding signal is -0.124 E-score.

With ACATCTAG, the binding signal is 0.125 E-score.

On to ATACGCGA, for which the binding signal turned out to be 0.198 E-score.

With ACATGCGT, the binding signal was -0.145 E-score.

Take CACTCTGG: the binding signal is -0.137 E-score.

For CACTTTAA, the binding signal was -0.0728 E-score.

Take AGGCGTTA: the binding signal was -0.141 E-score.

Consider AATGGCGT, for which the binding signal was -0.0528 E-score.

On to AGGTCTCC, for which the binding signal is -0.246 E-score.

ATTGCAAA displayed a binding signal of 0.212 E-score.

ACCAGGTA: the binding signal is -0.149 E-score.

On to AGGGTCGC, for which the binding signal is -0.357 E-score.

Sequence AGTTAGTC returned a binding signal of -0.149 E-score.

CAGAACTC registered a binding signal of -0.128 E-score.

Turning to ACACTGGG, the binding signal was -0.0798 E-score.

The sequence AAAAACCT gave a binding signal of 0.0738 E-score.

AGTGCAGC: the binding signal is -0.141 E-score.

For AGGCTAAT, the binding signal was -0.148 E-score.

On to AGGAACAA, for which the binding signal came to 0.0141 E-score.

Turning to ATACTATC, the binding signal worked out at 0.153 E-score.

AACGTTGC had a binding signal of -0.156 E-score.

ATTTCTAC registered a binding signal of 0.285 E-score.

Sequence ACGTGCAC came in with a binding signal of 0.0107 E-score.

As for AATCGGGT, the binding signal was determined as 0.272 E-score.

Regarding AGGTATCC, the binding signal is 0.181 E-score.

CAAAGACA registered a binding signal of 0.0167 E-score.

Sequence CACTTGTA returned a binding signal of 0.0671 E-score.

In turn, AAATTCCA displayed a binding signal of 0.0908 E-score.

Take AGATCTGA: the binding signal came out at 0.332 E-score.

As to ATTGTGGC, the binding signal stood at 0.0648 E-score.

On to AATAGGCC, for which the binding signal is -0.311 E-score.

ATAAAGCG had a binding signal of -0.0173 E-score.

On to AGGAGCCG, for which the binding signal is -0.119 E-score.

Take ATAAAACC: the binding signal amounted to 0.0119 E-score.

For the sequence CAACTTCG, the binding signal is 0.0133 E-score.

ATGACCGC: the binding signal was -0.117 E-score.

ATCGAATG came in with a binding signal of -0.00155 E-score.

CAAAACAC: the binding signal came out at 0.0261 E-score.

For the sequence ATACGTGG, the binding signal was 0.0802 E-score.

The sequence AACTAGTC displayed a binding signal of -0.1 E-score.

ACATACCT yielded a binding signal of 0.0375 E-score.

With AACCCCTG, the binding signal was -0.068 E-score.

Sequence AGTGAGTG showed a binding signal of -0.00984 E-score.

In the case of AAAATCCC, the binding signal was 0.41 E-score.

The sequence AACCACAA registered a binding signal of -0.0453 E-score.

Regarding ATTCGGTA, the binding signal stood at 0.241 E-score.

As for CACCACCA, the binding signal was -0.154 E-score.

With ATATTGGC, the binding signal amounted to 0.135 E-score.

In turn, ACCATCTC gave a binding signal of -0.0987 E-score.

On to ATCTAGAG, for which the binding signal came to 0.238 E-score.

AACTAAAC: the binding signal was 0.019 E-score.

With ATAGGTTA, the binding signal is -0.0142 E-score.

ACTCATAG: the binding signal was -0.0932 E-score.

CAAGCTGC came in with a binding signal of -0.196 E-score.

Sequence CACGTTAA registered a binding signal of -0.0358 E-score.

Sequence AAAGGGAA showed a binding signal of -0.0446 E-score.

The sequence AGCGCATA had a binding signal of 0.0789 E-score.

AAGGCGCC returned a binding signal of -0.337 E-score.

The sequence ACTTCAAT had a binding signal of 0.128 E-score.

In turn, AGAGCTTC yielded a binding signal of -0.249 E-score.

Consider ATAAGTGG, for which the binding signal was 0.074 E-score.

On to ACGTGCAT, for which the binding signal was -0.128 E-score.

As to AACTCATG, the binding signal is -0.0847 E-score.
